Reference: PubChem BioAssay AID1347165 (National Center for Advancing Translational Sciences (NCATS), 2019)
The campaign covered roughly 220,000 compounds. About 5,700 (2.6%) were called active. Inconclusive means that the source gave no clear call. Such entries were picked first, then a sample of the others. Calls follow the shape of the dose curve; as a rule, active = well fitted inhibition curve with a large enough effect; inconclusive = small, poorly fitted or top-dose-only effect; inactive = no such curve, though single readings can be large or run the other way. Potencies beside an inconclusive call are fits to weak or partial responses and may not hold up.

Each compound was assayed against Lysine-specific demethylase 5B (Homo sapiens) (UniProt Q9UGL1) (assay: Primary screen for KDM5B Histone Demethylases FDH-coupled qHTS). Conditions: FDH-coupled NADH fluorescence (FDH is formaldehyde dehydrogenase); activity change, negative = inhibition: at 57.7 µM (top of the series) unless noted.
Outline: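 Measured: NADH fluorescence change, 30 min, RT. System: KDM5BΔAP 200 nM final, H3K4me3 peptide, α-KG, Fe(II), ascorbate, NAD⁺ plus FDH, pH 7.5 HEPES. Compounds: titrated, 10 min pre-incubation with enzyme.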
Also: nearly all actives have a fitted effect of over 70% in size.
For activity change, negative = inhibition in this document: 0% is about no effect.
Potency is read from the fitted curve at half-maximal effect; tags tell the direction and shape of the fitted curve.

Sequence of UniProt Q9UGL1 (Q9UGL1 whole entry, looked up): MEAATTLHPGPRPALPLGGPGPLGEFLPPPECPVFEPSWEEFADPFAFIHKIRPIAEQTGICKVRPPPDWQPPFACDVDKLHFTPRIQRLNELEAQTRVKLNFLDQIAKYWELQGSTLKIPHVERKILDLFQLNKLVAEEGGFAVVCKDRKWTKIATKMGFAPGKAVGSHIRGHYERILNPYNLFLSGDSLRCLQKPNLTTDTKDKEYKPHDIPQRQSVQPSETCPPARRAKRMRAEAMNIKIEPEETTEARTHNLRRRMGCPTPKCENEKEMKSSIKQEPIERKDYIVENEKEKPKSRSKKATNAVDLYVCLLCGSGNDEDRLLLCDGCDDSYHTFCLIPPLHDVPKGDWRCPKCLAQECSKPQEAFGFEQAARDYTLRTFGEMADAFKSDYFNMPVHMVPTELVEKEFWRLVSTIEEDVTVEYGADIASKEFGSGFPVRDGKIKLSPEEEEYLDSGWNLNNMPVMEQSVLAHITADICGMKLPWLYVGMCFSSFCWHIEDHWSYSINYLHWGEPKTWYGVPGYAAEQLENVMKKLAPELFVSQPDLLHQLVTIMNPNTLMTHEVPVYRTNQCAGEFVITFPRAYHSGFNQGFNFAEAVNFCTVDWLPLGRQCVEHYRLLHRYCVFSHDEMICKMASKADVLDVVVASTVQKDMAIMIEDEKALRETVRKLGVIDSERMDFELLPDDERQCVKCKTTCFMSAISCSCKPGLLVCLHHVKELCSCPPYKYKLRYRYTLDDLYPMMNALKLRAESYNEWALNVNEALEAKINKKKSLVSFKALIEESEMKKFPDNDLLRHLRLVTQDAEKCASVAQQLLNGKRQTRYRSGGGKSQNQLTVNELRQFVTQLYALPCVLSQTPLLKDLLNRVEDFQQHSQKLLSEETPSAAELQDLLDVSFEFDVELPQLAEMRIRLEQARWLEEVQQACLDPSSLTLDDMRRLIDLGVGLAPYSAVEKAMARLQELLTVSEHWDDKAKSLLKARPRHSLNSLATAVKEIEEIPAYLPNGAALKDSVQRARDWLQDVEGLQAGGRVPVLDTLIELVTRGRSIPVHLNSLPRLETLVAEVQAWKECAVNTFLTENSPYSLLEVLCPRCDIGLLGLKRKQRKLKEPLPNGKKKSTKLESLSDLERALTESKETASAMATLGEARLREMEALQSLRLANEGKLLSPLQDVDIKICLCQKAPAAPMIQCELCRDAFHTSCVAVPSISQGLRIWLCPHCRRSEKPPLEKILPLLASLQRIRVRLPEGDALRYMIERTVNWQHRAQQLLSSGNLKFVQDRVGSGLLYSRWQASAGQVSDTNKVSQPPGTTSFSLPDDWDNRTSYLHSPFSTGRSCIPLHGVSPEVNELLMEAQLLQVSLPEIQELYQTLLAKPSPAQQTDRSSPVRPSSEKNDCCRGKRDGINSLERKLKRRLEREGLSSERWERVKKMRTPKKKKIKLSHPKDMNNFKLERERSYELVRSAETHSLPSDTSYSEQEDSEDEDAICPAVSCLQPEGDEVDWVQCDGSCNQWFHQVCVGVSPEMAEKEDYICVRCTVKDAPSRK

Row | SMILES | Potency | activity change, negative = inhibition
1 | O=C(c1ccccc1Cl)c1c(O)c2ccccc2oc1=O | inconclusive: 39.8 µM [inhibitor, single point] | –
2 | O=C(CCOc1ccccc1)N(Cc1cccnc1)c1nc2c(Cl)cccc2s1 | inconclusive: 28.2 µM [inhibitor, partial curve, poor fit] | –
3 | COc1ccc(CN2CCOc3nc(-c4cccc(NC(C)=O)c4)ncc3C2=O)cc1 | inconclusive: 35.5 µM [inhibitor, partial curve, poor fit] | –
4 | Cc1ccc(C2c3[nH]c4ccccc4c3CCN2C(=O)c2ccc(N(C)C)cc2)cc1 (stereo not drawn) | inconclusive: 25.1 µM [inhibitor, partial curve, poor fit] | –
5 | O=C1NC(=NC2CCCCC2)C2(CCN(Cc3ccccc3)C2)N1c1cccnc1 (stereo not drawn) | – | inactive: -6.79% [at 115 µM]
6 | CCOc1ccccc1CNC(=O)c1cc2n(n1)CC(c1ccc3c(c1)OCO3)OC2 (stereo not drawn) | active: 31.6 µM | –
7 | COc1ccc2[nH]c(=O)c(CN(C3CCCCC3)S(=O)(=O)c3ccccc3)cc2c1 | inconclusive: 35.5 µM [inhibitor, single point] | –
8 | COc1cccc(NC(=O)c2sc3nc(C)c(C(=O)Nc4ccc(C)cc4C)c(-c4ccc(Br)cc4)c3c2N)c1 | – | inconclusive: -38% [inhibitor]
9 | Cc1ccc(NC(=O)Cc2n[nH]c(=O)c3ccccc23)c(F)c1 | – | inactive: 12.2%
10 | CCCCCCNC(=S)NNC(=O)c1cc(-c2ccccc2)nc2ccccc12 | inconclusive: 39.8 µM [inhibitor, single point] | –
11 | CNC(=O)C1CCN(C(=O)c2ccc(-c3ncc4cnc(-c5ccccc5)cn34)cc2)CC1 | active: 22.4 µM | –
12 | Cc1ccc(-c2cc(C(=O)Nc3ccc(S(=O)(=O)Nc4onc(C)c4C)cc3)[nH]n2)c(O)c1 | inconclusive: 39.8 µM [inhibitor, single point] | –
13 | COCCNc1ncc(C(=O)O)c(-c2cc(F)cc(F)c2)n1 | inconclusive: 31.6 µM [inhibitor, partial curve, poor fit] | –
14 | O=C(C1Cn2cccc2C(=O)N1Cc1cccnc1)N1CCN(c2ncccn2)CC1 (stereo not drawn) | inconclusive: 28.2 µM [inhibitor, single point] | –
15 | NC(=O)C1(N2CCCCC2)CCN(C(=O)Nc2ccc(Cl)c(Cl)c2)CC1 | inconclusive: 3.55 µM [inhibitor, partial curve, poor fit] | –
16 | CCOP(=O)(c1ccccc1)c1nc(-c2ccccc2C)oc1NCc1ccccc1 (stereo not drawn) | inconclusive: 28.2 µM [inhibitor, partial curve, poor fit] | –
17 | CCCN(Cc1cc2cccc(C)c2[nH]c1=O)C(C)=O | inconclusive: 28.2 µM [inhibitor, partial curve, poor fit] | –
18 | CN(C)[C@@H]1CN(C(=O)c2ccccc2)CC[C@]1(O)c1ccccc1 | – | inactive: 10.5%
19 | COc1ccc(OC)c(-n2cnc3c2NC(=O)CC3c2ccsc2)c1 (stereo not drawn) | inconclusive: 20 µM [inhibitor, partial curve, poor fit] | –
20 | COCCN1Cc2ccc(Nc3ccc(OC)cc3)nc2C(C)(C(=O)NCC2CC2)C1 (stereo not drawn) | – | inactive: -28.1% [at 86.2 µM]
21 | CS(=O)(=O)N1Cc2ccccc2CC2(CCCCN2Cc2cccnc2)C1 (stereo not drawn) | inconclusive: 56.2 µM [inhibitor, partial curve, poor fit] | –

Row | SMILES | Potency | activity change, negative = inhibition
22 | Cc1oc2cc(OCCN3CCN(c4ccccc4)CC3)ccc2c(=O)c1-c1ccccc1 | – | inactive: 8.33%
23 | Cc1ccc(S(=O)(=O)N2CCN(C3CC4CCC3C4)CC2)cc1 (stereo not drawn) | inconclusive: 39.8 µM [inhibitor, partial curve, poor fit] | –
24 | FC(F)(F)c1cc(-c2ccccn2)nc2cc(-c3ccccc3)nn12 | inconclusive: 14.1 µM [inhibitor, partial curve, poor fit] | –
25 | CCc1noc(-c2cccn3c(CNC(=O)CCC4CCCC4)nnc23)n1 | active: 28.2 µM | –
26 | Cc1cccc(CN2C(=O)c3ccccc3Sc3ccc(C(=O)NCCc4ccccc4)cc32)c1 | inconclusive: 17.8 µM [inhibitor, partial curve, poor fit] | –
27 | CSc1ccc(Cl)c(C(=O)OCC(=O)N2CCN(C(=O)c3ccco3)CC2)c1 | inconclusive: 31.6 µM [inhibitor, partial curve, poor fit] | –
28 | Cc1cnc(C(=O)N[C@@H]2CCC[C@@H]2C(=O)NCc2cccc(F)c2)cn1 | – | inactive: -0.155%
29 | CCC(=O)N1CCc2cc(CNS(=O)(=O)c3ccc(Cl)s3)ccc21 | inconclusive: 15.8 µM [inhibitor, partial curve, poor fit] | –
30 | O=C1Cc2cc(C(=O)CSc3ccc4c(c3)OCCCO4)ccc2N1 | inconclusive: 39.8 µM [inhibitor, single point] | –
31 | Fc1ccc(-c2cc(NC3CCCC3)nc3[nH]ccc23)nc1 | active: 31.6 µM | –
32 | O=C(NC1CCCCC1)N1Cc2[nH]cnc2C[C@H]1c1nc(-c2ccc3ccccc3c2)no1 | inconclusive: 7.08 µM [inhibitor, partial curve] | –
33 | CCn1c(=O)c2ccnn2c2ccc(C(=O)NCc3ccccc3)cc21 | inconclusive: 31.6 µM [inhibitor, partial curve, poor fit] | –
34 | COc1ccc(/C=C(/C#N)c2nc3ccccc3[nH]2)cc1Cl | inconclusive: 39.8 µM [inhibitor, partial curve, poor fit] | –
35 | CCOC(=O)c1ccc(N2CCCCC2)c(NS(=O)(=O)c2ccc(C)cc2)c1 | inconclusive: 39.8 µM [inhibitor, single point] | –
36 | CCOCCCNC(=O)N1CCC(c2noc(-c3cnccn3)n2)C1 (stereo not drawn) | – | inactive: 15.9%
37 | O=[S+]1([O-])NCC2(CCN(CC3CCOCC3)CC2)Oc2ncccc21 | inconclusive: 56.2 µM [inhibitor, partial curve, poor fit] | –
38 | CCOc1ccc(NC(=O)c2ccc(-c3nnc4ccc(NC(=O)C5CC5)cn34)cc2)cc1 | inconclusive: 28.2 µM [inhibitor, single point] | –
39 | O=C(NCCn1ccn2nc(-c3ccc(F)cc3)cc2c1=O)c1cccc(Cl)c1 | – | inactive: -13.3%
40 | O=C(NCC1COCCO1)c1cc(COc2c(F)cccc2F)on1 (stereo not drawn) | inconclusive: 28.2 µM [inhibitor, partial curve, poor fit] | –
41 | O=C(CC1(C(=O)O)CCCCC1)Nc1ccccc1CO | – | inactive: 11.5%
42 | CCc1[nH]nc(C(=O)N2CCCC(Nc3ccc(C(C)C)cc3)C2)c1C (stereo not drawn) | – | inconclusive: -32.4% [inhibitor]

Row | SMILES | Potency | activity change, negative = inhibition
43 | O=C(O)CCSC(C(=O)N1CCCCC1)c1ccccc1 (stereo not drawn) | – | inactive: 14%
44 | Cc1c(NC(=O)c2cc3ccccc3o2)cccc1-c1nc2ccccc2o1 | inconclusive: 39.8 µM [inhibitor, single point] | –
45 | Cc1ccc2nc(Nc3ccc(Br)cc3)nc(-c3ccccc3)c2c1 | inconclusive: 1.12 µM [inhibitor, full curve, poor fit] | –
46 | COc1ccc(-c2nc(C)nc3c2CN([S+](=O)([O-])c2ccc(C)cc2)CC3)cc1 | inconclusive: 22.4 µM [inhibitor, partial curve] | –
47 | CCCCc1nn2c(=O)cc(COC(=O)CNC(=O)c3ccccc3C)nc2s1 | inconclusive: 15.8 µM [inhibitor, partial curve, poor fit] | –
48 | CCOc1ccc2oc(=O)cc(CN3CCN(C(=O)c4ccc(Cl)cc4)CC3)c2c1 | inconclusive: 0.708 µM [inhibitor, partial curve, poor fit] | –
49 | Cc1ccc(CC(=O)N2CCCN(c3cc(-c4ccccc4)[nH]n3)CC2)cc1 | active: 28.2 µM | –
50 | CCN1C(=O)C2CC3(CCN(C4CCN(C)CC4)CC3)CN2C1=O (stereo not drawn) | inconclusive: 35.5 µM [inhibitor, partial curve, poor fit] | –
51 | Oc1ccc(-c2ccc(O)cc2)cc1 | inconclusive: 39.8 µM [inhibitor, single point] | –
52 | CN(C)CCCNC(=O)Cn1c(-c2ccccc2)cc2ccccc21 | inconclusive: 22.4 µM [inhibitor, partial curve, poor fit] | –
53 | CC(C(=O)Nc1ccc(F)cc1Cl)N1CCN(c2ccc(O)cc2)CC1 (stereo not drawn) | inconclusive: 25.1 µM [inhibitor, partial curve, poor fit] | –
54 | COc1ccc(-c2ccc(=O)n(CC(=O)Nc3ccc(N(C)C)cc3)n2)cc1 | inconclusive: 25.1 µM [inhibitor, partial curve, poor fit] | –
55 | COc1ccc(/C=C/C(=O)Nc2ccc(Cl)c(Cl)c2)cc1OC | inconclusive: 39.8 µM [inhibitor, partial curve, poor fit] | –
56 | O=S1(=O)C=CC(N(Cc2ccccc2)Cc2cccc(F)c2)C1 (stereo not drawn) | – | inactive: -27.2%
57 | CC(=O)Nc1ccc(CC(=O)N2CCc3c(c(-c4nncn4C)nn3C)C2)cc1 | inconclusive: 14.1 µM [inhibitor, partial curve] | –
58 | O=C(CCc1c[nH]c2ccccc12)NCc1ccc(CN2CCCC2)cc1 | – | inactive: -12.6%
59 | O=C(NCc1nc(-c2ccncc2)n[nH]1)[C@H]1CCC[C@H](O)C1 | inconclusive: 3.55 µM [inhibitor, partial curve, poor fit] | –
60 | COc1ccc(CN2C(=O)COC[C@@H]2[C@H](O)c2ccc(NC(=O)c3ccc(C(C)(C)C)cc3)cc2)cc1 | inconclusive: 28.2 µM [inhibitor, single point] | –
61 | CCN1c2cc(C(=O)NC3CCCC3)ccc2C(=O)N2CCCCC21 (stereo not drawn) | inconclusive: 22.4 µM [inhibitor, partial curve, poor fit] | –
62 | COc1ccc(-c2nc3ccc(C(=O)NCc4ccccc4)cc3nc2-c2ccc(OC)cc2)cc1 | inconclusive: 3.55 µM [inhibitor, full curve, poor fit] | –
63 | Cc1ccc(-c2cc(N3CCC(CNC(=O)c4cccc(N(C)C)c4)CC3)n[nH]2)cc1 | active: 28.2 µM | –
